These results are taken from PubChem BioAssay AID493208 (National Center for Advancing Translational Sciences (NCATS), 2011).

Hit rate of the full screen: of about 44,000 compounds, about 340 (0.77%) were called active. About 5% were inconclusive and are not listed. Calls come from the whole dose curve; as a rule, active = well fitted inhibition curve with a large enough effect; inconclusive = small, poorly fitted or top-dose-only effect; inactive = flat fitted curve, though single readings scatter. Some of the results follow.
Potency is the fitted concentration of half-maximal effect.

The assay in a line: Acumen qHTS Assay for Inhibitors of the mTORC1 Signaling Pathway in MEF (Tsc2-/-, p53-/-) Cells: Sytravon.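 For activity change, negative = inhibition: plate controls were DMSO for no effect and rapamycin for full effect.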 Note: nearly all actives have a fitted effect of over 50% in size. Conditions: phospho-rpS6 immunofluorescence/PI, 24 h; series mostly up to 38.3 µM; activity change, negative = inhibition: at the top concentration. Put shortly:
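Tsc2-/-, p53-/- MEFs (empty-vector stable line) in DMEM + 10% FBS were treated with compounds 24 h at 37 degree Celsius, fixed, and immunostained for phospho-rpS6 (Alexa-488) with propidium iodide counterstain. Laser-scanning cytometry gave % positive cells, normalized against 7.5 nM rapamycin and DMSO.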
A general note: qHTS replaces the single test concentration by a dilution series.
As to `CCOc1ccc(C2Nc3ccccc3-c3nnc(SCc4ccccc4)nc3O2)cc1OC` (stereo not drawn), the “activity change, negative = inhibition” value was inactive: -14.1%. With `CCCOc1ccc(-c2nn(-c3ccccc3)cc2C2NC(=O)NC(C)=C2C(=O)OC)cc1C` (stereo not drawn), the “activity change, negative = inhibition” value is inactive: 0.0374%.

With `CCc1cccc(NC(=O)c2ccc(CN3C(=O)C(C)=C(c4ccc(OC)cc4)S3(=O)=O)cc2)c1`, the “activity change, negative = inhibition” value is inactive: -9.64%. With `CCC(=O)N1CCc2cc(Br)cc(S(=O)(=O)CCC(=O)NCCc3ccc(Cl)cc3)c21`, the “activity change, negative = inhibition” value is inactive: -1.43%. Consider `CCOc1ccccc1NC(=O)Nc1nnc(N2CCCCCC2)s1`, for which the “activity change, negative = inhibition” value was inactive: 1.77%. For the compound `Cc1ccccc1CNC(=O)C1CCCN(S(=O)(=O)N(C)c2ccc(F)cc2)C1` (stereo not drawn), the “activity change, negative = inhibition” value was inactive: -2.36%. As for `CC(=O)Nc1ccc(NC(=O)CCNS(=O)(=O)c2cccc3nsnc23)cc1`, the “activity change, negative = inhibition” value was inactive: -2.71%.

Turning to `COc1cccc(NC(=O)Cn2cc(S(=O)(=O)N3CCCC3)c(S(=O)(=O)N3CCCC3)c2)c1`, the “activity change, negative = inhibition” value is inactive: -16.2%. For the compound `CCOc1ccccc1CNC(=O)c1cc2cc(S(=O)(=O)N3CCCCC3)ccc2n1C`, the “activity change, negative = inhibition” value is inactive: 2.93%.

Regarding `Cc1ccccc1CNC(=O)Cn1ncn2nc(-c3cccs3)cc2c1=O`, the “activity change, negative = inhibition” value is inactive: 1.82%. Consider `Cc1cccc(CSc2cn(CC(=O)N3CCCC3)c3ccccc23)c1`, for which the “activity change, negative = inhibition” value is inactive: -2.9%. For the compound `CCC(Oc1ccccc1)C(=O)Nc1ccc2oc(-c3ccc(OC)cc3)nc2c1` (stereo not drawn), the “activity change, negative = inhibition” value was inactive: 2.15%. The same measure, in the same setting: with `O=C(COc1ccc(S(=O)(=O)NC2CCCCC2)cc1)Nc1ccc(C(F)(F)F)cc1` the figure was inactive: 1.37%. In the case of `Cc1cc(N2CCCCC2)nc2ccc(NC(=O)/C=C/c3ccccc3OC(C)C)cc12`, the Potency was active: 16.5 µM. For the compound `Cc1ccc(CNC(=O)CSCc2ccc(F)cc2)cc1`, the “activity change, negative = inhibition” value was inactive: 12.9%. The same measure, in the same setting: the same measure for `O=S(=O)(c1ccccc1)n1nc(-c2ccccc2)nc1NCc1ccc(Cl)cc1`: inactive: -0.0797%; for `CCOc1ccc(N(CC)S(=O)(=O)N2CCCC(C(=O)NCc3ccccc3Cl)C2)cc1` (stereo not drawn): inactive: -9.52%. Regarding `CCOc1cccc(CC(=O)N2CCc3c([nH]c4ccccc34)C2c2ccc(F)cc2)c1OCC` (stereo not drawn), the “activity change, negative = inhibition” value is inactive: 9.87%. For the compound `CCOc1ccc(CC(=O)Nc2c(C(=O)c3ccc(C)cc3)oc3ccccc23)cc1OCC`, the “activity change, negative = inhibition” value was inactive: -15.4%. As to `CCC(=O)N1CCc2cc(Br)cc(S(=O)(=O)N3CCCC(C(=O)Nc4cccc(Cl)c4C)C3)c21` (stereo not drawn), the “activity change, negative = inhibition” value was inactive: -0.511%. `CCCCNC(=O)CCn1c(=O)c2ccccc2n(Cc2ccccc2C#N)c1=O`: the “activity change, negative = inhibition” value is inactive: -18%.

On to `Cc1ccc(C(=O)COC(=O)C(CC(C)C)NC(=O)C2CCC(C)CC2)cc1` (stereo not drawn), for which the “activity change, negative = inhibition” value was inactive: -0.367%. As to `CCc1ccccc1NC(=O)c1ccc2nc(CCc3ccccc3)oc2c1`, the “activity change, negative = inhibition” value is inactive: -8.74%. On the same count and under the same terms, the same measure for `COc1cc(C2N=C(N)Nc3nc4ccccc4n32)ccc1OCCC(C)C` (stereo not drawn): inactive: 0.566%; for `O=C(Cc1cccc([N+](=O)[O-])c1)NCc1nc2cccnc2n1Cc1ccc(F)cc1`: inactive: -7.82%. As for `CC(=O)c1cccc(NC(=O)C2CCCN(c3nnc(-n4cccc4)s3)C2)c1` (stereo not drawn), the “activity change, negative = inhibition” value is inactive: -5.6%.

In the case of `Cn1c(=O)cc(OCCCC(=O)Nc2ccc(F)cc2)c2ccccc21`, the “activity change, negative = inhibition” value was inactive: -13.8%.

In the case of `CCCN(CCC)CCCNC(=O)C1CCCN(S(=O)(=O)c2cccc3nsnc23)C1` (stereo not drawn), the “activity change, negative = inhibition” value is inactive: -6.2%. The same measure, in the same setting: the same measure for `Cc1ccccc1-c1nc(CS(=O)(=O)CC(=O)N2CCN(c3ccccc3)CC2)c(C)o1`: inactive: 1.08%. In the case of `CCOC(=O)c1cc(C)n(CC2CCC(C(=O)Nc3ccc(Cl)cc3)CC2)c1C` (stereo not drawn), the “activity change, negative = inhibition” value is inactive: -2.27%. For `CCOc1ccc(CCNC(=O)Cn2nnc(-c3ccccc3)n2)cc1OCC`, the “activity change, negative = inhibition” value is inactive: -1.92%.

Regarding `CC(=O)Nc1cccc(C(=O)NCc2ccc3c(c2)CCN3C(=O)c2ccccc2)c1`, the “activity change, negative = inhibition” value was inactive: -1.11%. Take `COc1cc(NS(=O)(=O)c2ccc(NC(=O)c3ccccc3C(=O)O)cc2)nc(OC)n1`: the “activity change, negative = inhibition” value is inactive: 2.96%.

Turning to `COc1cc(OC)c(NC(=O)NC(C)c2c(-n3cccc3)sc(C)c2C)cc1Cl` (stereo not drawn), the “activity change, negative = inhibition” value was inactive: -2.93%.

As for `Cc1ccc2cccc(NC(=O)c3ccc(-c4cccc([N+](=O)[O-])c4)o3)c2n1`, the “activity change, negative = inhibition” value is inactive: 1.77%. With `COc1cccc(C(=O)Nc2cc(-c3ccccc3)no2)c1`, the “activity change, negative = inhibition” value is inactive: 3.45%. On the same count and under the same terms, the same measure for `CC(C)CC(=O)Nc1ccc(C(=O)OCc2cc(=O)n3nc(C(C)C)sc3n2)cc1`: inactive: 22.2%. For the compound `COc1ccc(C(=O)N2CC(=O)Nc3ccc(F)cc3C2c2ccc(F)cc2)c(OC)c1` (stereo not drawn), the “activity change, negative = inhibition” value is inactive: -19.2%. Turning to `CC(C)CC(NS(=O)(=O)c1ccc2c(c1)oc(=O)n2C)C(=O)NCCc1ccc(Cl)cc1` (stereo not drawn), the “activity change, negative = inhibition” value is inactive: 2.72%. Take `COC(=O)c1ccc(NC(=O)c2cc(S(=O)(=O)N3CCc4ccccc43)cn2C)cc1`: the “activity change, negative = inhibition” value was inactive: -2.38%. For the compound `Cc1ccc(NC(=O)c2oc3ccccc3c2NC(=O)c2cc3ccccc3o2)cc1`, the “activity change, negative = inhibition” value is inactive: -12.7%.

Turning to `O=C(CSc1cn(CCNC(=O)c2c(F)cccc2F)c2ccccc12)Nc1ccc2c(c1)OCCO2`, the “activity change, negative = inhibition” value was inactive: -1.87%. On the same count and under the same terms, the same measure for `O=C(OCc1cc(=O)n2nc(C3CC3)sc2n1)c1ccc(F)cc1`: inactive: 0.322%; for `CCOc1ccccc1NC(=O)Cn1cnc2onc(-c3ccc(F)cc3)c2c1=O`: inactive: -2.08%. As for `Cc1cc(C)cc(NS(=O)(=O)c2ccc3[nH]cc(C(=O)N4CCCC4)c(=O)c3c2)c1`, the “activity change, negative = inhibition” value was inactive: -0.259%. On the same count and under the same terms, with `CC1=C(C(N)=O)C(c2cccc(Br)c2)n2nc(SCc3ccccc3)nc2N1` (stereo not drawn) the figure was inactive: 0.558%; with `CCCCc1nnc(SCc2cc(=O)c3cc(C(=O)OCC)ccc3[nH]2)n1C`, inactive: -0.014%; with `O=C(NCc1cccnc1)C1CCN(Cc2cc3ccccc3n2Cc2cccc(Cl)c2)CC1`, inactive: -20.2%.
